Binding signal data for 31 molecules are collected here from article PMC9911399, “Two distinct binding modes provide the RNA-binding protein RbFox with extraordinary sequence specificity”.

Residue numbers refer to the chain shown, from its start. This is one part of the list.

T1: RBFOX1 RRM (Homo sapiens, UniProt Q9NWB1 109-208)
T1 sequence: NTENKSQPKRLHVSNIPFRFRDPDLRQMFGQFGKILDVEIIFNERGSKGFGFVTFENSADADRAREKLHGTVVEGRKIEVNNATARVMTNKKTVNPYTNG

B1: ACUUUCG (DNA:RNA)
RNA: GGGAGACCGGAAUUCAGAUUGUCCACUUUCGUUAAAUCCCGUCGUAGCCACCA
DNA 1: CAATCTGAATTCCGGTCTCCC
DNA 2: TGGTGGCTACGACGGGATT
B2: AGAAGGC (DNA:RNA)
RNA: B1 RNA with C26G, U27A, U28A, U29G, C30G, G31C
DNA 1: CAATCTGAATTCCGGTCTCCC
DNA 2: TGGTGGCTACGACGGGATT
B3: AGGGCUU (DNA:RNA)
RNA: B1 RNA with C26G, U27G, U28G, U29C, C30U, G31U
DNA 1: CAATCTGAATTCCGGTCTCCC
DNA 2: TGGTGGCTACGACGGGATT
B4: UCGCCGU (DNA:RNA)
RNA: B1 RNA with A25U, U27G, U28C, U29C, C30G, G31U
DNA 1: CAATCTGAATTCCGGTCTCCC
DNA 2: TGGTGGCTACGACGGGATT
B5: GUGUGCG (DNA:RNA)
RNA: B1 RNA with A25G, C26U, U27G, U29G
DNA 1: CAATCTGAATTCCGGTCTCCC
DNA 2: TGGTGGCTACGACGGGATT
B6: AUGGGCA (DNA:RNA)
RNA: B1 RNA with C26U, U27G, U28G, U29G, G31A
DNA 1: CAATCTGAATTCCGGTCTCCC
DNA 2: TGGTGGCTACGACGGGATT
B7: CGCUUCC (DNA:RNA)
RNA: B1 RNA with A25C, C26G, U27C, G31C
DNA 1: CAATCTGAATTCCGGTCTCCC
DNA 2: TGGTGGCTACGACGGGATT
B8: UUUAUGU (DNA:RNA)
RNA: B1 RNA with A25U, C26U, U28A, C30G, G31U
DNA 1: CAATCTGAATTCCGGTCTCCC
DNA 2: TGGTGGCTACGACGGGATT
B9: CUUGUCC (DNA:RNA)
RNA: B1 RNA with A25C, C26U, U28G, G31C
DNA 1: CAATCTGAATTCCGGTCTCCC
DNA 2: TGGTGGCTACGACGGGATT
B10: AGGUGAG (DNA:RNA)
RNA: B1 RNA with C26G, U27G, U29G, C30A
DNA 1: CAATCTGAATTCCGGTCTCCC
DNA 2: TGGTGGCTACGACGGGATT
B11: UGGGACC (DNA:RNA)
RNA: B1 RNA with A25U, C26G, U27G, U28G, U29A, G31C
DNA 1: CAATCTGAATTCCGGTCTCCC
DNA 2: TGGTGGCTACGACGGGATT
B12: GUACCUA (DNA:RNA)
RNA: GGGAGACCGGAAUUCAGAUUGUCCGUACCUAUUAAAUCCCGUCGUAGCCACCA
DNA 1: CAATCTGAATTCCGGTCTCCC
DNA 2: TGGTGGCTACGACGGGATT
B13: AAACUAG (DNA:RNA)
RNA: B1 RNA with C26A, U27A, U28C, C30A
DNA 1: CAATCTGAATTCCGGTCTCCC
DNA 2: TGGTGGCTACGACGGGATT
B14: GUCAGAA (DNA:RNA)
RNA: B12 RNA with A27C, C28A, C29G, U30A
DNA 1: CAATCTGAATTCCGGTCTCCC
DNA 2: TGGTGGCTACGACGGGATT
B15: UAAUUAG (DNA:RNA)
RNA: B1 RNA with A25U, C26A, U27A, C30A
DNA 1: CAATCTGAATTCCGGTCTCCC
DNA 2: TGGTGGCTACGACGGGATT
B16: CGCAGCU (DNA:RNA)
RNA: B1 RNA with A25C, C26G, U27C, U28A, U29G, G31U
DNA 1: CAATCTGAATTCCGGTCTCCC
DNA 2: TGGTGGCTACGACGGGATT
B17: CUAAGGC (DNA:RNA)
RNA: B12 RNA with G25C, C28A, C29G, U30G, A31C
DNA 1: CAATCTGAATTCCGGTCTCCC
DNA 2: TGGTGGCTACGACGGGATT
B18: AGGAGAC (DNA:RNA)
RNA: B1 RNA with C26G, U27G, U28A, U29G, C30A, G31C
DNA 1: CAATCTGAATTCCGGTCTCCC
DNA 2: TGGTGGCTACGACGGGATT
B19: AGGUGCC (DNA:RNA)
RNA: B1 RNA with C26G, U27G, U29G, G31C
DNA 1: CAATCTGAATTCCGGTCTCCC
DNA 2: TGGTGGCTACGACGGGATT
B20: CGACACG (DNA:RNA)
RNA: B1 RNA with A25C, C26G, U27A, U28C, U29A
DNA 1: CAATCTGAATTCCGGTCTCCC
DNA 2: TGGTGGCTACGACGGGATT
B21: AUUCGUA (DNA:RNA)
RNA: B12 RNA with G25A, A27U, C29G
DNA 1: CAATCTGAATTCCGGTCTCCC
DNA 2: TGGTGGCTACGACGGGATT
B22: UUCGCUA (DNA:RNA)
RNA: B12 RNA with G25U, A27C, C28G
DNA 1: CAATCTGAATTCCGGTCTCCC
DNA 2: TGGTGGCTACGACGGGATT
B23: GCAGUUA (DNA:RNA)
RNA: B12 RNA with U26C, C28G, C29U
DNA 1: CAATCTGAATTCCGGTCTCCC
DNA 2: TGGTGGCTACGACGGGATT
B24: CGAUUGC (DNA:RNA)
RNA: B1 RNA with A25C, C26G, U27A, C30G, G31C
DNA 1: CAATCTGAATTCCGGTCTCCC
DNA 2: TGGTGGCTACGACGGGATT
B25: UAUUUCU (DNA:RNA)
RNA: B1 RNA with A25U, C26A, G31U
DNA 1: CAATCTGAATTCCGGTCTCCC
DNA 2: TGGTGGCTACGACGGGATT
B26: GGGUCGC (DNA:RNA)
RNA: B12 RNA with U26G, A27G, C28U, U30G, A31C
DNA 1: CAATCTGAATTCCGGTCTCCC
DNA 2: TGGTGGCTACGACGGGATT
B27: AUUGGGA (DNA:RNA)
RNA: B1 RNA with C26U, U28G, U29G, C30G, G31A
DNA 1: CAATCTGAATTCCGGTCTCCC
DNA 2: TGGTGGCTACGACGGGATT
B28: GAUCGGG (DNA:RNA)
RNA: B1 RNA with A25G, C26A, U28C, U29G, C30G
DNA 1: CAATCTGAATTCCGGTCTCCC
DNA 2: TGGTGGCTACGACGGGATT
B29: CCGGAUA (DNA:RNA)
RNA: B12 RNA with G25C, U26C, A27G, C28G, C29A
DNA 1: CAATCTGAATTCCGGTCTCCC
DNA 2: TGGTGGCTACGACGGGATT
B30: CGAAAGG (DNA:RNA)
RNA: B1 RNA with A25C, C26G, U27A, U28A, U29A, C30G
DNA 1: CAATCTGAATTCCGGTCTCCC
DNA 2: TGGTGGCTACGACGGGATT
B31: GAUUACU (DNA:RNA)
RNA: B1 RNA with A25G, C26A, U29A, G31U
DNA 1: CAATCTGAATTCCGGTCTCCC
DNA 2: TGGTGGCTACGACGGGATT

The target in this assay is T1, RBFOX1 RRM. As to the kind of experiment: EMSA; HiTS-Eq, 1 nM pool, 10 min; buffer printed only for the single-RNA assays: 10 mM Tris pH 7.5, 150 mM NaCl, 3.4 mM EDTA, 0.001% NP-40, 30 C. Conditions: tags: His6 N-terminal (pET28a); label: 5' 32P. The method, boiled down: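 Purified wild-type or mutant RbFox RRM at increasing concentrations was equilibrated with 1 nM of 5′-radiolabelled RNA carrying 7 randomized nucleotides for 10 min in 50 µL. Unbound RNA was separated by 8% native PAGE and sequenced. Relative association constants came from read-count changes of each RNA species compared with the control reaction, normalised to the cognate motif.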
On to B1, for which the binding signal is 0.0143 KA relative to UGCAUGU.

Take B2: the binding signal is 0.00991 KA relative to UGCAUGU.

In the case of B3, the binding signal is 0.0189 KA relative to UGCAUGU.

Turning to B4, the binding signal was 0.0106 KA relative to UGCAUGU.

With B5, the binding signal was 0.0191 KA relative to UGCAUGU.

B6: the binding signal is 0.0198 KA relative to UGCAUGU.

For B7, the binding signal is 0.0114 KA relative to UGCAUGU.

As to B8, the binding signal is 0.0163 KA relative to UGCAUGU.

In the case of B9, the binding signal was 0.0101 KA relative to UGCAUGU.

In the case of B10, the binding signal was 0.0128 KA relative to UGCAUGU.

B11: the binding signal was 0.0142 KA relative to UGCAUGU.

With B12, the binding signal is 0.00499 KA relative to UGCAUGU.

As for B13, the binding signal is 0.00102 KA relative to UGCAUGU.

As to B14, the binding signal is 0.0136 KA relative to UGCAUGU.

For the molecule B15, the binding signal is 0.0193 KA relative to UGCAUGU.

B16: the binding signal was 0.00757 KA relative to UGCAUGU.

In the case of B17, the binding signal is 0.00788 KA relative to UGCAUGU.

Take B18: the binding signal was 0.00964 KA relative to UGCAUGU.

For B19, the binding signal is 0.0151 KA relative to UGCAUGU.

Consider B20, for which the binding signal was 0.0076 KA relative to UGCAUGU.

As for B21, the binding signal was 0.00648 KA relative to UGCAUGU.

With B22, the binding signal was 0.0124 KA relative to UGCAUGU.

Regarding B23, the binding signal is 0.0066 KA relative to UGCAUGU.

B24: the binding signal is 0.0213 KA relative to UGCAUGU.

With B25, the binding signal was 0.0068 KA relative to UGCAUGU.

Regarding B26, the binding signal is 0.0242 KA relative to UGCAUGU.

As for B27, the binding signal is 0.00568 KA relative to UGCAUGU.

As for B28, the binding signal is 0.00907 KA relative to UGCAUGU.

Take B29: the binding signal was 0.00829 KA relative to UGCAUGU.

With B30, the binding signal is 0.0047 KA relative to UGCAUGU.

For the molecule B31, the binding signal is 0.00556 KA relative to UGCAUGU.
